Data taken from PubChem BioAssay AID2107 (National Center for Advancing Translational Sciences (NCATS), 2009).
About 20 (0.008%) of roughly 240,000 compounds were called active. This list was built around the results that the source calls inconclusive (neither active nor inactive); the mix of calls is not that of the screen. The call rests on the fitted dose curve; in most records, active means well fitted inhibition curve with a large enough effect; inconclusive means small, poorly fitted or top-dose-only effect, or effect the other way; inactive means flat fitted curve, though single readings scatter. No potency is given beside an inconclusive call; the fits are too rough.

molecular target: Alpha-galactosidase A (Homo sapiens) (UniProt P06280); assay: qHTS Assay for Inhibitors and Activators of Human alpha-Galactosidase From Spleen Homogenate; settings: 4MU-alpha-Gal fluorescence, 40 min; series mostly up to 80 µM
Outline: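 Fluorogenic readout (Ex 365/Em 440 nm) of 4-methylumbelliferone released from 1 mM 4-MU-alpha-galactoside by spleen homogenate, 40 min at 37C, pH 5.0. Data normalized to no-enzyme and enzyme controls; Hill-equation AC50 from compound titrations.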
Potency means the concentration at half of the fitted maximal effect; tags describe the fitted curve by direction and shape.

Chain of UniProt P06280 (P06280 whole entry, looked up): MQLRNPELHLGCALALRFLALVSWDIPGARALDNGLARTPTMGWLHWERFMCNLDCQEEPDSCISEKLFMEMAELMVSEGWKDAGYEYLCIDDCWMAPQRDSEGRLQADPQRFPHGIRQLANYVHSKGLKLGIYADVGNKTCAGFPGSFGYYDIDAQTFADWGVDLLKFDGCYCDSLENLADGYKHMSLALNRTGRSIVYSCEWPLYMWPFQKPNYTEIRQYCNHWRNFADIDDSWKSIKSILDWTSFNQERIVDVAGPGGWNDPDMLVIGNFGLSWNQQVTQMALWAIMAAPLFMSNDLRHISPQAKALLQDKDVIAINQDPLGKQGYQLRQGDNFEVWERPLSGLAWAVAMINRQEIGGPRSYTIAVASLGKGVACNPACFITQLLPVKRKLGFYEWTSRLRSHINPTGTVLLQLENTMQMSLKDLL

Structure (SMILES)	Potency
COC(=O)C1=CN(C)C=C(C(=O)OC)C1c1ccccc1Cl	inconclusive [activator, partial curve]
Oc1cc2c(cc1C(c1ccc(Cl)c(Cl)c1)N1CCCC1)OCO2 (centres undefined)	inactive
COc1cc2c(cc1OC)C1(Nc3c-2c(Cc2ccccc2)nn3-c2ccccc2)C(=O)Nc2ccccc21 (centres undefined)	inconclusive [activator, full curve, poor fit]
CCOC(=O)C/C(C)=N\Nc1nc(-c2ccccc2)cs1	inconclusive [inhibitor, single point]
CCCOc1c(Br)cc(C2C3=C(CCCC3=O)N(CC)C3=C2C(=O)CCC3)cc1OC	inconclusive [activator, single point]
COc1ccc2[nH]c3c4c(ccc3c2c1)C(=O)C=CC4=O	inactive
Nc1ncnc(Nc2ccccn2)c1[N+](=O)[O-]	inactive
CCNc1ncc2ncc(=O)n(Cc3ccc(F)cc3)c2n1	inconclusive [activator, partial curve]
Nc1c(C(=O)NCc2ccco2)c2nc3ccccc3nc2n1CCc1ccccc1F	inconclusive [activator, single point]
Cc1ccc(C)n1-c1nccc(-c2ccco2)n1	inconclusive [activator, partial curve]
O=C(Nc1ccc(-c2nc3cccnc3s2)cc1)C1CCCO1 (centres undefined)	inconclusive [activator, single point]
CC(=O)c1cccc(NC(=O)c2cc(C)no2)c1	inconclusive [activator, single point]
Cc1cccn2c(=O)c(C=Nc3ccccc3)c(NCCO)nc12	inconclusive [activator, partial curve]
CC(=O)Nc1nnc(-c2ccc3c(c2)CCCC3)o1	inactive
Cc1cc(=O)oc2cc(OC(=O)c3ccccc3)ccc12	inconclusive [activator, partial curve]
CCOc1ccc(N=c2oc3cc(O)ccc3cc2C(=O)NCC2CCCO2)cc1 (centres undefined)	inconclusive [activator, partial curve]
Nc1c(C(=O)NCc2ccco2)c2nc3ccccc3nc2n1CCc1ccccc1	inconclusive [activator, single point]
COc1ccc2c(c1)c1ncn(CCN3CCCCC3)c(=O)c1n2C	inconclusive [activator, partial curve]
N#Cc1c(C(F)(F)F)cc(-c2cccs2)nc1SCc1ccc(Cl)nc1	inconclusive [activator, single point]
NS(=O)(=O)c1ccc(N2N=C(c3ccc(Br)cc3)CC2c2ccc(F)cc2)cc1 (centres undefined)	inconclusive [activator, partial curve]
CCC(=O)Nc1c(S(=O)(=O)c2ccc(C)cc2)c2nc3ccccc3nc2n1C(C)c1ccccc1 (centres undefined)	inconclusive [activator, single point]
COc1cc2cc(C(N)=O)c(N)nc2cc1OC	inconclusive [activator, partial curve]
COc1ccc(CCNC(=O)C23CN(Cc4ccccc4)CC2C(c2cccc([N+](=O)[O-])c2)=NO3)cc1 (centres undefined)	inactive

Structure (SMILES)	Potency
COc1ccc(-c2cc(C(F)(F)F)c(C#N)c(SCC(=O)O)n2)cc1	inconclusive [activator, single point]
CC(=O)Oc1cc2oc(=O)c3c(c2cc1Cl)CCC3	inconclusive [activator, partial curve]
Nc1sccc1C(=O)c1ccccc1	inconclusive [inhibitor, single point]
Cc1ccc(S(=O)(=O)/C(=C/Cl)NC(=O)c2ccccc2)cc1	inactive
Cc1cc(=O)oc2cc(OC(=O)c3nn(C(C)C)c(=O)c4ccccc34)ccc12	inconclusive [activator, partial curve]
Cc1ccc(Cn2nnc3c(=O)[nH]c(C(=O)NCc4ccco4)nc32)cc1	inactive
CC(=O)N[C@H](C(=O)O)C(C)(C)SN=O	inactive
Cc1ccc(C2CC(=O)Oc3ccc(O)cc32)cc1 (centres undefined)	inconclusive [inhibitor, partial curve]
COc1ccc(C(C)=O)c(Oc2nc(CN3CCOCC3)nc3scc(-c4cccs4)c23)c1	inconclusive [activator, single point]
COC(=O)c1ccc2c(c1)c(C#Cc1ccccc1)c(-c1ccccc1)n2C	inconclusive [activator, partial curve]
COc1ccc(N2CCN(C(=O)CCNS(=O)(=O)c3ccc4c(c3)CCC(=O)N4)CC2)cc1	inconclusive [inhibitor, single point]
CS(=O)(=O)c1ccc(Cl)c(S(=O)(=O)NCc2ccccc2)c1	inconclusive [inhibitor, single point]
COc1ccccc1C(=O)NCc1ccc(-c2nc3ccccc3s2)cc1	inactive
CCN(CC)c1ccc(-c2nn3c(-c4ccccc4OC)nnc3s2)cc1	inconclusive [activator, partial curve]
Cc1nnc(SCC(=O)Nc2ccc(Oc3ccccc3)cc2)n1N	inconclusive [inhibitor, single point]
COc1ccc(C2CC(c3ccc4ccccc4c3)=NN2C(=O)CNC2CCCCC2)cc1 (centres undefined)	inactive
Cn1c(SCC(=O)c2cc3ccccc3o2)nnc1-c1ccccc1	inactive
CCOc1cc(/C=C2/C(=O)ON=C2C)ccc1OCc1ccccc1F	inactive
Cc1nc(-c2ccccc2)sc1-c1nc(-c2cccnc2)ncc1S(=O)(=O)c1ccccc1	inactive
COc1ccc(Cn2nnnc2C(c2cc3cc(C)ccc3[nH]c2=O)N2CCOCC2)cc1 (centres undefined)	inconclusive [activator, single point]
CCN1CCN(Cc2c(O)ccc3c(=O)c(-c4ccc(OC)c(OC)c4)c(C(F)(F)F)oc23)CC1	inconclusive [activator, single point]
CC(C)(C)c1cc(C(F)(F)F)c(C#N)c(=O)[nH]1	inconclusive [activator, partial curve]
Cc1ccc(S(=O)(=O)NC(C(=O)Oc2ccc3c(C)c(Cl)c(=O)oc3c2)c2ccccc2)cc1 (centres undefined)	inconclusive [activator, partial curve]

Structure (SMILES)	Potency
CN1CCN(c2cc(-c3ccc(N(C)C)cc3)ncn2)CC1	inconclusive [activator, single point]
COCCn1c(=O)[nH]c2cc(C(=O)NCc3cccnc3)ccc2c1=O	inconclusive [activator, partial curve]
Cc1nnc(C)n1/N=C/c1ccc(C(=O)O)cc1	inconclusive [activator, full curve, poor fit]
Cc1cc(-n2c(C)cc(C(=O)CSc3nnc4sc5ccccc5n34)c2C)no1	inconclusive [inhibitor, single point]
COC(=O)c1c(C(=O)OC)c2cc(C)ccn2c1Cl	inconclusive [activator, single point]
O=C1OCCN1C(=O)[C@H]1[C@H](c2ccccc2)C(c2cccc(Cl)c2)=NN1c1ccc(Br)cc1	inconclusive [activator, partial curve]
Cc1ccc2[nH]c(=O)c(CN(CCc3ccccc3)C(c3nnnn3Cc3ccco3)C(C)C)cc2c1 (centres undefined)	inactive
CCCC(=O)NC(c1ccc(OC)c(OC)c1)c1c(O)ccc2ccccc12 (centres undefined)	inconclusive [activator, partial curve]
CCCOC(=O)NC1C(NC(=O)OCCC)N(C)C(=O)N1C (centres undefined)	inconclusive [inhibitor, single point]
COc1ccc2[nH]cc(CCNc3nc(-c4ccccc4CN(C)C)nc4ccccc34)c2c1	inconclusive [inhibitor, single point]
O=C(/C=C/c1ccc(-c2ccccc2)o1)c1ccccc1	inactive
CCOC(=O)c1cc2c(=O)n3ccccc3nc2n(C(C)C)c1=NC(=O)c1ccco1	inconclusive [activator, single point]
CS(=O)(=O)Nc1cccc(-c2nccc(NCc3ccccc3)n2)c1	inactive
Cc1cc(C(F)(F)F)c(C#N)c(=O)[nH]1	inconclusive [activator, partial curve]
Cn1c(CNc2ccccc2O)nc2ccccc21	inactive
CCN1CCCC1CNC(=O)c1ccc2c(=O)n(CCOC)c(=O)[nH]c2c1 (centres undefined)	inconclusive [activator, partial curve]
CN(C(=O)COc1ccccc1C(=O)NCCOc1ccccc1)c1ccccc1	inactive
CSc1sc(C)cc1/C=N/O	inactive
CCc1ccc(C(=O)CC2(O)C(=O)N(CN3CCOCC3)c3ccccc32)cc1 (centres undefined)	inconclusive [activator, single point]
CCCn1c(N)c(Br)c(=O)[nH]c1=O	inconclusive [inhibitor, partial curve, poor fit]
COc1ccc(-c2cnc(SCC(=O)Nc3ccc4c(c3)OCO4)n2Cc2ccco2)cc1	inconclusive [inhibitor, single point]
CCOC(=O)c1sc(-c2ccc(OC)cc2)cc1NC(C)=O	inconclusive [activator, partial curve]
COCCn1c(N)c(C(=O)NCC2CCCO2)c2nc3ccccc3nc21 (centres undefined)	inconclusive [activator, partial curve]
